These results are taken from PMC5737669 (Nucleic Acids Research, 2017).

This test deals with T1, Clp1 (Saccharomyces cerevisiae, UniProt Q08685 1-445).
T1 sequence (looked up): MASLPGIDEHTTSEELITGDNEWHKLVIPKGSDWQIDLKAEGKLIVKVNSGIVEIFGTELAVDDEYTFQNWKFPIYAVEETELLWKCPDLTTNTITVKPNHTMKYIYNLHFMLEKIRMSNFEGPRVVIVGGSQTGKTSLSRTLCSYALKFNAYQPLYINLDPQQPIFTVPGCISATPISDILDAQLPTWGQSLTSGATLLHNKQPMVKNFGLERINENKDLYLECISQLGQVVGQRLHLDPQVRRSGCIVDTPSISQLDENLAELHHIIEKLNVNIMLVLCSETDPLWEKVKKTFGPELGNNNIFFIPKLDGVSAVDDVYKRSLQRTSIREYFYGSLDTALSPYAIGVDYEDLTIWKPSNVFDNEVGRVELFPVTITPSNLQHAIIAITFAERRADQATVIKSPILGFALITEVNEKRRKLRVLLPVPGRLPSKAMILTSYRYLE
Kind of test: recombinant sub-complex obtained as a heterodimer.

B1: Pcf11 ([…]) (domain or fragment)
chain: not shown
Turning to B1, the binding result is listed as “binds”.
